The source of these data is patent US20170165373A1 (Amgen, published 2017).

Where a chain is given by its changes, count along the chain named. In names and notes the source's numbering stands. Read-outs that look alike come from different tables or passages of the source.

As usually defined, the EC50 (read off the curve) is the concentration at which the effect is half-maximal. For orientation: EC50 means the concentration at which the effect is half-maximal. High values mean a less potent agent, low ones a more potent agent.

Assay [1] concerns the target T1, human BCMA (huBCMA), full length, on cells (human, UniProt Q02223 1-184).
T1 chain: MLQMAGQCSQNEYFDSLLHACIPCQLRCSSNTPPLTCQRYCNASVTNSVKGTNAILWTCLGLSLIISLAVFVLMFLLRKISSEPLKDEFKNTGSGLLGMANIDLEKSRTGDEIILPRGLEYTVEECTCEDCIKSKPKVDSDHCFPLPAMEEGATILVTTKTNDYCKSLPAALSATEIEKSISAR
The assay is described as follows: cell-based or functional assay.

Assay [2] has as its target T1, human BCMA (huBCMA), full length, on …. The assay is described as follows: cell-based or functional assay.
Assay [3] has the same target. The assay is described as follows: FACS, H929 cells. (In general: A flow cytometer gives signals particle by particle.)
Assay [4] has the same target. The assay is described as follows: FACS on H929 cells, native BCMA, relative binding, indirect.
Assay [5] shares this target. The assay is described as follows: cell-based or functional assay.
Assay [6] has the same target. The assay is described as follows: cell-based or functional assay.

B1: 2A1 Covariance 1 (2A1_C107T) (antibody, human IgG1, lambda)
heavy: EVQLVESGGGLVKPGRSLRLSCTASGFTFGDYALSWFRQAPGKGLEWVGVSRSKAYGGTTDYAASVKGRFTISRDDSKSFAYLQMNSLKTEDTAVYYCTSSGYSSGWTPFDYWGQGTLVTVSS[omitted - human IgG1 constant region]
light: QSVLTQPPSASGTPGQRVTISCSGSSSNIGSNTVNWYQQLPGTAPKLLIFNYHQRPSGVPDRFSGSKSGSSASLAISGLQSEDEADYYCAAWDDSLNGWVFGGGTELTVLGQPKAAPSVTLFPPSSEELQANKATLVCLISDFYPGAVTVAWKADSSPVKAGVETTTPSKQSNNKYAASSYLSLTPEQWKSHRSYSCQVTHEGSTVEKTVAPTECS
notes: also called Ab-19
Consider B1, for which the entries for the “ADCC EC50” value in assay [1] and in assay [2] were 0.0238 µg/mL and 0.031 µg/mL, respectively. For the same molecule, in assay [3], the “EC50 (read off the curve)” value is approximately 0.2 µg/mL.

B2: 2A1 Covariance 2 (2A1_R17G + C107T) (antibody, human IgG1, lambda)
heavy: B1 heavy with R16G
light: B1 light
For the molecule B2, the “ADCC EC50” value in assay [1] came out at 0.0241 µg/mL.

B3: 2A1CV5-MCC-DM1 (Ab-1 ADC) (other)
heavy: B1 heavy with R16G, T23A, F80T, T99A
light: B1 light with E106K
modifications: DM1 coupled through the non-cleavable SMCC (MCC) linker; sites not stated
notes: also called 2A1CV5 ADC
As for B3, the EC50 in assay [4] was determined as 2.9 nM. Further, in assay [5], the “cell viability IC50 (CellTiter-Glo, 96 h), H929” value turned out to be 1.9 nM DM1; the “cell viability IC50 (CellTiter-Glo, 96 h), KMS11” value came to 6.1 nM DM1; the “cell viability IC50 (CellTiter-Glo, 96 h), KMS26” value turned out to be 3.1 nM DM1; the “cell viability IC50 (CellTiter-Glo, 96 h), KMS28BM” value came out at 3.5 nM DM1. Besides, in assay [5], the “cell viability IC50 (CellTiter-Glo, 96 h), KMS28PE” value is 4.7 nM DM1; the “cell viability IC50 (CellTiter-Glo, 96 h), KMS34” value amounted to 5 nM DM1; the “cell viability IC50 (CellTiter-Glo, 96 h), MM1R” value was 3.6 nM DM1; the “cell viability IC50 (CellTiter-Glo, 96 h), MM1S” value was 1.8 nM DM1. Besides, in assay [5], the “cell viability IC50 (CellTiter-Glo, 96 h), U266” value was found to be 2.4 nM DM1. In addition, in assay [6], the “H929 cell growth inhibition IC50 (CellTiter-Glo, 96 h)” value is 0.234 nM.

B4: 2A1 Covariance 18 (2A1_K14Q + R17G + T24A + G32S + F44V + G56S + D84N + F88T + T98A + C107A; 2A1_E144K VL) (antibody, human IgG1, lambda)
heavy: B1 heavy with K13Q, R16G, T23A, G30S, F37V, G49S, D76N, F80T, T90A, T99A
light: B1 light with E106K
For B4, the “ADCC EC50” value in assay [1] was determined as 0.359 µg/mL.
